Experimental data as given in PubChem BioAssay AID588855 (National Center for Advancing Translational Sciences (NCATS), 2011).
“And” between values parts separate entries of the source, which are not always exact repeats. Equal entries are not always repeated. The whole screen tested about 410,000 compounds, of which about 5,000 (1.2%) were called active. The inconclusive results got no clear call from the source; some entries with a clear call stand among them for comparison. Calls follow the shape of the dose curve; as a rule, active = well fitted inhibition curve with a large enough effect; inconclusive = small, poorly fitted or top-dose-only effect; inactive = no such curve, though single readings can be large or run the other way. Potencies of inconclusive entries are doubtful fits and often do not repeat.

Test: qHTS for Inhibitors of TGF-b; also: nearly all actives have a fitted effect of over 65% in size
Details: HepG2 CAGA-GFP TGF-b/SMAD3 reporter, GFP fluorescence, 18 h, TGF-beta stimulated, 500 pg/mL final; series mostly up to 46.1 µM
In short: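 HEPG2 CAGA-GFP reporter cells (1000/well, DMEM with 1% FBS) received compounds, then recombinant TGF-beta at 500 pg/mL final for 18 hours at 37 degrees C. Per-cell GFP summed per well was normalised to unstimulated and stimulated DMSO controls before curve fitting.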
Potency is read from the fitted curve at half-maximal effect; tags tell the direction and shape of the fitted curve.

SMILES	Potency
O=C(CSc1nc(-c2ccccc2)cs1)Nc1cccc([N+](=O)[O-])c1	inconclusive: 35.5 µM [inhibitor, single point]
Cc1nn(C)cc1CN(C)Cc1ccc(OCC(O)CN2CCCCC2)cc1 (centres undefined)	inactive
CCC(=O)[C@@]1(C)[C@H](C)C[C@H]2[C@@H]3CCC4=CC(=O)C=C[C@]4(C)[C@H]3[C@@H](O)C[C@@]21C	inactive
COc1ccc(OC)c(-c2nnc3n2N=C(c2ccc(OC)c(OCC4CC4)c2)CS3)c1	active: 7.94 µM
Cc1[nH]c2ccccc2c1C(c1c[nH]c2ccccc12)c1c(C)[nH]c2ccccc12	active: 15.8 µM
Cc1ccc(NS(=O)(=O)c2cc(C(N)=O)ccc2C)cc1	inconclusive: 0.794 µM [inhibitor, partial curve, poor fit]
O=C(Nc1cccc(Cl)c1)N(CCN1CCOCC1)Cc1cccc(Cl)c1	inconclusive: 11.2 µM [inhibitor, single point]
COc1ccc(NC(=O)Nc2ccc3c(c2)C(=O)N([C@H](C)CO)C[C@H](C)[C@@H](CN(C)S(C)(=O)=O)O3)cc1	inconclusive: 1.26 µM [inhibitor, full curve]
O=C1CCC(C(=O)OCC(=O)N2N=C3/C(=C\c4ccccc4)CCCC3C2c2ccccc2)N1 (centres undefined)	inactive
S=c1nc(-c2ccc(Cl)cc2)[nH][nH]1	inactive
Cc1cc(C(C)(C)C)cc(C)c1C[n+]1ccc2ccccc2c1	inconclusive: 12.6 µM [inhibitor, partial curve, poor fit]
CC1CCC(=NO)C(=NO)C1 (centres undefined)	inconclusive: 35.5 µM [inhibitor, single point]
COc1ccc(C(=O)OCC(=O)Nc2nnc(-c3ccccc3)o2)cc1	inactive
Nc1ccc(-c2nc3ccc(N)cc3o2)cc1	inconclusive: 35.5 µM [inhibitor, single point]
NC(=S)n1[nH]c(-c2ccc([N+](=O)[O-])cc2)c(N=Nc2cccc([N+](=O)[O-])c2)c1=O	inconclusive: 3.98 µM [inhibitor, partial curve, poor fit]
O=C1NCCC/C1=N\Nc1ccc(Br)cc1	inactive
Cc1nn(C)c(C)c1NS(=O)(=O)c1ccc(Cl)cc1	inactive
Cc1cccc(C(=O)OC(C)C(=O)Nc2ccc(S(=O)(=O)N3CCCC3)cc2)c1O (centres undefined)	inconclusive: 35.5 µM [inhibitor, single point]
NC(=NCc1ccco1)NC(=O)c1ccc(Cl)cc1	inconclusive: 35.5 µM [inhibitor, single point]
Cc1ccc(S(=O)(=O)N2CCOCC2)cc1NC(=O)COc1cccc(Oc2ccccc2)c1	inactive
CCOc1cccc(C2c3[nH]c4ccccc4c3CCN2C(=O)c2ccccc2F)c1 (centres undefined)	inconclusive: 12.6 µM [inhibitor, partial curve]
CC(=O)c1ccc(NC(=O)Cn2cnc3nc4c(cc3c2=O)CC(C)CC4)cc1 (centres undefined)	inactive

SMILES	Potency
CC(OC(=O)CCCN=C1NS(=O)(=O)c2ccccc21)C(=O)Nc1ccc(F)c(F)c1F (centres undefined)	inactive
CCC(Sc1nnc(C)n2c1cc1sccc12)C(=O)Nc1ccccc1F (centres undefined)	inconclusive: 25.1 µM [inhibitor, single point]
Cc1cccc(-c2nc3scc(CCNS(=O)(=O)c4c(C)noc4C)n3n2)c1	inactive
Cc1ccc(F)cc1NC(=O)CCc1c(C)nn(-c2ccc(N3CCCC3)nn2)c1C	inactive
Cc1ccc(-n2nc3c(=O)n(CCCC(=O)NCc4ccccc4C)nc(C)c3c2C)cc1	inconclusive: 112 nM [inhibitor, full curve, poor fit] and inconclusive: 5.01 µM [inhibitor, partial curve, poor fit]
O=C(Nc1ccc(Cl)cc1)C1=Cc2ccccc2OC1	inactive
Cc1ccc([N+](=O)[O-])cc1S(=O)(=O)N1CCn2cccc2C1c1ccccc1F (centres undefined)	inactive
CN(Cc1ccc(F)cc1)S(=O)(=O)c1nnc(NC(=O)c2ccccc2Br)s1	inconclusive: 35.5 µM [inhibitor, partial curve, poor fit] and inconclusive: 22.4 µM [inhibitor, single point]
O=C(OCCN1C(=O)c2ccccc2C1=O)c1cc2ccccc2o1	inconclusive: 35.5 µM [inhibitor, single point]
O=C(Nc1nc(-c2cccs2)cs1)c1ccc(Cl)cc1	inconclusive: 35.5 µM [inhibitor, single point]
COc1ncccc1C(=O)NC1CCCc2c1cnn2-c1ccc(C)c(C)c1 (centres undefined)	inconclusive: 7.08 µM [inhibitor, partial curve]
S=C(NNc1ccnc2cc(Cl)ccc12)Nc1ccc(Cl)cc1Cl	inconclusive: 15.8 µM [inhibitor, partial curve, poor fit]
C/C=C/c1ccc(OCCOCCNCc2ccccc2)c(OC)c1	inconclusive: 17.8 µM [inhibitor, single point]
CCCc1nc(SCC(=O)NCC2CCCO2)c2c(=O)n(C)c(=O)n(C)c2n1 (centres undefined)	inactive
COc1ccccc1N1CCN(C(=O)c2ccc(C(C)(C)C)cc2)CC1	inactive
CCN(CC)S(=O)(=O)c1ccc2c(c1)nc(CN(C)C(=O)Nc1ccc(Cl)cc1)n2C	inconclusive: 0.447 µM [inhibitor, full curve]
O=C(Nc1ccc(S(=O)(=O)N2CCOCC2)cc1)c1ccc(F)cc1	inactive
Cc1ccc(C(=O)N/C(=C/c2ccc(F)cc2)C(=O)NCc2ccncc2)cc1	inactive
CCCCOc1ccc(/C=N/Nc2cc(N3CCOCC3)nc(C)n2)cc1	inactive
Cc1ccc(/C=N\NC(=O)c2cc(OCC(F)(F)F)ccc2OCC(F)(F)F)cc1	inconclusive: 17.8 µM [inhibitor, single point]
Cc1ccc(SCCNC(=O)/C=C/c2ccc([N+](=O)[O-])cc2)cc1	inconclusive: 20 µM [inhibitor, single point]
O=C(Nc1ccc(Cl)cc1)Nc1nc(-c2ccccc2O)cs1	inconclusive: 12.6 µM [inhibitor, partial curve, poor fit]
